# Reference: the supplement of paper PMC10126150
# Sequences with one replicate were seen in a single cluster, so their values are uncertain.
# Test system: ATP
# Assay: switch fluorescence ratio, 500 uM ATP over buffer (Cy3 cluster intensity, sum of 5 cycles each) (fold (ratio)); higher = stronger signal-on switching upon ATP binding; sequences stand for … in TCGTCGGCAGCGTCAGATGTGTATAAGAGACAGTTTTTTTTTTTTTTTTTTTTTTTTT…TC
# Settings: aptamer strand: ATP DNA aptamer (quencher-CACCTGGGGGAGTATTGCGGAGGAAGG + anchor), 100 nM annealed; ATP concentration: 500 uM; one replicate
# Method in brief: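 Clusters with intensities outside 100-1000 RFU were excluded. The remaining Cy3-labelled switching-strand clusters on a modified Illumina MiSeq flow-cell had been annealed to 100 nM quencher-labelled ATP aptamer and imaged in selection buffer, then after 15 min with 500 uM ATP at 22 °C, for five cycles separated by NaOH stripping and re-annealing. The fluorescence ratio, averaged per switch-domain sequence, is each cluster's summed target-cycle Cy3 intensity over its summed buffer-cycle Cy3 intensity.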
# 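Further: ATP exposure 15 min at 22 °C before imaging.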
row,Sequence,switch fluorescence ratio
1,TGTTCGGGAG,0.974
2,TGGAAGAGCC,1.09
3,GCTCTTAT,1.01
4,CGCGAATGTT,0.999
5,GTTGTTTAAG,0.984
6,GCACTGTACG,1.69
7,AAGACTGGGG,1.02
8,ACGTATAAGT,1.05
9,TAAGCGACAA,1.05
10,ATACCTTGGG,1.05
11,CAGGATCGCC,1
12,GACGGGACAA,1.3
13,CACACGACGG,1.23
14,TCGCGTTCG,1.03
15,GTACGCATG,1.03
16,TAGTCGACAC,1.03
17,GGGATGGT,1
18,GCATCAACAT,1.06
19,TCTCCTTCTT,1.41
20,GAGTCTGTAC,1.03
21,CATTTGTGCT,0.959
22,ACCTAGAACA,1.02
23,TAACTGGAAT,0.98
24,ACCATCGCGA,1.06
25,TTGTGCGATC,1.14

row,Sequence,switch fluorescence ratio
1,TGGATAACAT,1.01
2,GATACCCCA,1.09
3,CCGGTAACTT,1.06
4,TCTTGTTCAA,0.97
5,TTAGGTCGTG,0.992
6,CAATAGTCCG,1.04
7,CCGTTTAGAA,1.08
8,CAATAGTAAA,1
9,CCGTCTGAGC,1
10,GACTCGTCTG,0.975
11,GGTCTGAAGG,0.994
12,CGGGGACCCG,1.01
13,GTAACCGCTG,1.05
14,GCGATACAGA,1.09
15,TAGACTACTA,1.04
16,AAGGGGCAGA,1.01
17,TCGTTGAAGT,0.999
18,TGTTGCACAC,1.03
19,ATGAAAACAC,1.03
20,GTTAACAGGG,1
21,TGTGAGGGAC,1.04
22,TCATGAAGGG,1.04
23,ACGAACGGGT,1.12
24,GCTATGGGTC,1.04
25,GACAGCCGCT,1.2

row,Sequence,switch fluorescence ratio
1,AGACAGCCAC,1.19
2,TTCCAACACC,1.07
3,ATGACTTTGA,1.01
4,TGGAAATTCT,0.999
5,GGTTAGTTCC,1.09
6,ATTCTGTCCG,1.15
7,CTAAAAGTCC,1.01
8,CGGGGCTTAC,1.79
9,AACTGGCGCC,1
10,TTCGAATAGC,1
11,TTTGGTATAA,0.969
12,CGAGCGTCAG,1.03
13,CGGTTAGTCG,0.969
14,ACATTATT,1.03
15,CCGGGTCTAG,1.23
16,CTATGGTTGT,0.972
17,CTGACCCCTG,0.958
18,AGAAGCTGTT,1.14
19,ACCATCAAA,1.01
20,ACTTAACTTA,1.1
21,CGTCTGTTAT,1.01
22,CCCACTAGGC,1.05
23,AAATACAGAT,1.03
24,GACTGGAGCG,0.997
25,GGGTTCTCAC,1.05

row,Sequence,switch fluorescence ratio
1,GCGGAATCAG,0.999
2,CATGAAAGGC,1.02
3,GTTTTCAAAT,1.05
4,CACTTCAGTC,0.957
5,TCGGTGCAAC,1.1
6,CGAAGTCACA,1.16
7,GGTCGGGAAA,1
8,TCATTACTGG,0.98
9,AGCTCGTAAG,0.982
10,GGGGACAGTA,0.976
11,GGGTCTTAAG,0.98
12,CGGATTGTTG,0.965
13,GTCAGTTCGA,0.995
14,CAAGAGAGAC,1.02
15,CCTTTTTGCT,0.982
16,CAGTCGTTCC,1.27
17,TTGGATTTGT,1.01
18,CATGAAGC,1.03
19,AGGTCGCAGC,0.959
20,ACAAGGGTTT,0.982
21,GTGTTAGCTC,0.948
22,TACCTTTTAT,1.04
23,GATTTGATCC,1.04
24,ACTCACCAC,1.4
25,GCGAACAAAC,1.12
